According to PubChem BioAssay (NCATS):
Values joined by “and” are separate entries in the source; they are usually repeats but may differ in a detail not shown here. Equal values may be shown once. The inconclusive results got no clear call from the source; some entries with a clear call stand among them for comparison. For some assays here: A potency beside an inconclusive call is a rough fit, not a confirmed value. For some assays here: “Side channel” marks fits to a control or component signal instead of the main read-out. Active and inactive are the calls of the source. Unless noted, calls follow the shape of the dose curve; as a rule, active = well fitted curve in the direction sought with a large enough effect; inconclusive = small, poorly fitted or top-dose-only effect, or another doubt; inactive = no such curve, though single readings can be large; an effect the other way counts as inactive or inconclusive.

Tests used:
[1] = Cell Viability - Hek293 (AID 427;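 active = compounds whose dose-response curve shows a full or clear partial loss of cell viability, called from curve shape rather than a numeric limit; inconclusive = weak partial curves or an effect only at the top dose; inactive = no dose-dependent loss of viability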;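 also: potency is read from the fitted curve at half-maximal effect; cells exposed to compound for 40 hours at 37 °C before reading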); details: qHTS
Summary of the method: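 HEK293 cells in complete medium were exposed to compound for 40 hr at 37 °C, then cellular ATP was read by CellTiter-Glo luminescence. Data were normalized to DMSO (basal) and 100 uM tamoxifen (100% inhibition), and AC50 came from Hill fits.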

[2] = Cell Viability - H-4-II-E (AID 543); details: H-4-II-E rat hepatoma viability; series mostly up to 92.2 µM; also: nearly all actives have a fitted effect of over 35% in size; also: potency is read from the fitted curve at half-maximal effect
Summary of the method: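 Rat hepatoma H-4-II-E cells, 1500 per well, treated 40 h at 37 °C in complete medium. Cellular ATP read by CellTiter-Glo luminescence; AC50 from Hill fits of concentration-response.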

[3] = MultiTox-Fluor Cytotoxicity Assay - LYMP1-002 - Dead Cells (AID 960); details: LYMP1-002 lymphoblastoid cells, dead-cell protease fluorescence; cytotoxicity (dead cells): at 46.1 µM (top of the series); also: nearly all actives have a fitted effect of over 60% in size; also: potency is read from the fitted curve at half-maximal effect;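 as to cytotoxicity (dead cells): 0% = DMSO and 100% = tetraoctylammonium bromide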
Summary of the method: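 Human lymphoblastoid LYMP1-002 cells, 2500/well, treated 16 h at 37 C; dead-cell protease cleavage of bis-AAF-R110 read by fluorescence (485/520); normalized to DMSO and 15 uM tetraoctylammonium bromide; AC50 from Hill fit.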

[4] = target: Glucocorticoid receptor (Homo sapiens) (UniProt P04150); experiment: qHTS assay for small molecule antagonists of glucocorticoid receptor signaling (AID 588533; active = well fitted inhibition curve with a large enough effect in the signal ratio, with a control signal flat, not every such curve was filed as active; inconclusive = small, poorly fitted or top-dose-only effect, or effect the other way, or a change in a side signal; the % refers to the signal ratio;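 also: cells stimulated with 2 nM dexamethasone as agonist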; also: potency is read from the fitted curve at half-maximal effect; as to activity change, negative = inhibition: % is scaled to controls: 0 for no effect and ±100 for the full control effect); details: HeLa MMTV-bla, GRE beta-lactamase ratio, antagonist mode, 18 h; activity change, negative = inhibition: at 76.8 µM (top of the series)
[5] = target: Peroxisome proliferator-activated receptor delta (Homo sapiens) (UniProt Q03181); experiment: qHTS assay for small molecule antagonists of peroxisome proliferator-activated receptor delta signaling (AID 588535; active = well fitted inhibition curve with a large enough effect in the signal ratio, with a control signal flat, not every such curve was filed as active; inconclusive = small, poorly fitted or top-dose-only effect, or effect the other way, or a change in a side signal; inactive = no such curve, though single readings can be large or run the other way; the % refers to the signal ratio; also: potency is read from the fitted curve at half-maximal effect); details: HEK293T PPARd-UAS-bla, beta-lactamase FRET ratio, 18 h; activity change, negative = inhibition: at 76.7 µM (top of the series)
Summary of the method: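 Reporter: UAS-bla under PPAR-delta response element, HEK293T host. Medium: 2% charcoal/dextran FBS. Dosing: titration, 18 hrs, 37 C. Detection: CCF4, 2 hrs RT, 405 ex/460 and 530 em.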

[6] = target: Peroxisome proliferator-activated receptor gamma (Homo sapiens) (UniProt P37231); experiment: qHTS assay for small molecule agonists of peroxisome proliferator-activated receptor gamma signaling (AID 588536; active = well fitted curve in the direction sought with a large enough effect in the signal ratio, with a control signal flat, not every such curve was filed as active; inconclusive = small, poorly fitted or top-dose-only effect, or effect the other way, or a change in a side signal; inactive = no such curve, though single readings can be large or run the other way; the % refers to the signal ratio;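 also: 0% = DMSO basal wells and 100% = rosiglitazone at 2 µM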); details: HEK293 PPARg-UAS-bla, beta-lactamase ratio, 16 h; activation: at 76.7 µM (top of the series), percent of rosiglitazone response, DMSO as zero
Summary of the method: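 GeneBLAzer PPAR-gamma-UAS-bla HEK293 cells in 1% charcoal/dextran-treated FBS medium were treated 16 h at 37 C with compounds. Beta-lactamase activity was read by CCF4 ratio (460/530 nm). Response was normalized to 2 uM rosiglitazone (100%) and DMSO, then Hill-fitted for EC50 and efficacy.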

[7] = target: Thyroid hormone receptor beta (Homo sapiens) (UniProt P10828); experiment: qHTS assay for small molecule agonists of thyroid hormone receptor beta signaling (AID 588545; calls by dose curve; also: potency is read from the fitted curve at half-maximal effect); details: TR-UAS-bla GripTite HEK 293, beta-lactamase ratio, agonist mode, 18 h; activation: at 76.7 µM, percent of T3 response, DMSO as zero
Summary of the method: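 In this cell-based screen, titrated compounds act on HEK 293 cells held in medium with 2% charcoal/dextran FBS, NEAA and pyruvate for 18 hrs at 37 C. Responses are expressed relative to T3 (10 nM) as 100% and basal DMSO as 0%.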

[8] = target: Retinoic acid receptor RXR-alpha (Homo sapiens) (UniProt P19793); experiment: qHTS assay for small molecule antagonists of retinoid X receptor alpha signaling (AID 588546; active = well fitted inhibition curve with a large enough effect in the signal ratio, with a control signal flat, not every such curve was filed as active; inconclusive = small, poorly fitted or top-dose-only effect, or effect the other way, or a change in a side signal; inactive = no such curve, though single readings can be large or run the other way; the % refers to the signal ratio;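 also: cells stimulated with 9-cis-retinoic acid as agonist; % is scaled to controls: 0 for no effect and ±100 for the full control effect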); details: HEK293T RXRa-UAS-bla, beta-lactamase ratio, antagonist mode
Summary of the method: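 Beta-lactamase reporter inhibition, read as CCF4 fluorescence ratio (ex 405, em 460/530 nm) after 2 h at RT. HEK293T UAS-bla cells, 2500/well, were stimulated with 9-cis-RA at 500 or 100 nM final alongside test compound for 18 h at 37 C.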

[9] = target: Thyroid hormone receptor beta (Homo sapiens) (UniProt P10828); experiment: qHTS assay for small molecule antagonists of thyroid hormone receptor beta signaling (AID 588547; active = well fitted inhibition curve with a large enough effect in the signal ratio, with a control signal flat, not every such curve was filed as active; inconclusive = small, poorly fitted or top-dose-only effect, or effect the other way, or a change in a side signal; the % refers to the signal ratio; also: potency is read from the fitted curve at half-maximal effect;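 as to activity change % (negative = inhibition): cells stimulated with 0.4 nM T3 agonist during compound exposure; % is scaled to controls: 0 for no effect and ±100 for the full control effect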); details: TR-UAS-bla HEK293, beta-lactamase ratio, antagonist mode, 18 h
Summary of the method: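 TR-UAS-bla GripTite HEK293 cells in 2% charcoal/dextran FBS medium were preincubated 4 h at 37 C, given compound (0.59 nM to 92 uM) plus 0.4 nM T3 (final) for 18 h, then CCF4 for 2 h at RT; Hill fit gave IC50.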

[10] = qHTS assay to identify small molecules that stimulate interleukin-8 (IL-8) secretion (AID 651758; active = well fitted activation curve with a large enough effect in the signal ratio; inconclusive = small, poorly fitted or top-dose-only effect, or effect the other way, or a change in a side signal; the % refers to the signal ratio; also: potency is read from the fitted curve at half-maximal effect; as to activation: 0% is about no effect); details: HTRF ratio (665/615)
Summary of the method: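 THP-1, 2000 cells/well; cpd 16 h, 37 C; add cryptate + XL665 anti-IL-8 Abs; RT 1-3 h; TR-FRET read.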

[11] = qHTS assay for small molecule agonists of the antioxidant response element (ARE) signaling pathway measured by Nrf2-dependant transcriptional activity (AID 720636; active = well fitted curve in the direction sought with a large enough effect in the repeat runs; inconclusive = weak or mixed curves; inactive = no such curve, though single readings can be large; an effect the other way counts as inactive or inconclusive; also: potency is read from the fitted curve at half-maximal effect;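 as to activation: HepG2 cells with an ARE-driven luciferase reporter; % of control where 0% means no effect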); details: ARE-luc HepG2, Nrf2 luciferase reporter, 16 h; series mostly up to 92.4 µM
Summary of the method: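 Nrf2-dependent transcription is measured in ARE-luc HepG2 cells: compound is applied for 16 hr at 37 C after a 6 hr attachment period, and luciferase activity is quantified by luminescence using ONE-Glo.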

[12] = qHTS assay for small molecule antagonists of the retinoid-related orphan receptor gamma (ROR-gamma) signaling pathway - cell viability counter screen (AID 720652; active = well fitted curve in the direction sought with a large enough effect in the repeat runs; inconclusive = weak or mixed curves; inactive = no such curve, though single readings can be large; an effect the other way counts as inactive or inconclusive;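 also: potency is read from the fitted curve at half-maximal effect; compound exposure lasted 16 hr before ATP read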); details: RORgamma reporter cell line viability counter screen; series mostly up to 92.2 µM
Summary of the method: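 CHO cells carrying TET-inducible ROR and RORE-luciferase reporter, plated 5 hr, then dosed with compound plus doxycycline. After 16 hr at 37 C, viability read as intracellular ATP by CellTiter-Glo luminescence.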

[13] = target: Peroxisome proliferator-activated receptor gamma (Homo sapiens) (UniProt P37231); experiment: qHTS assay for small molecule antagonists of peroxisome proliferator-activated receptor gamma signaling (AID 588537; active = well fitted inhibition curve with a large enough effect in the signal ratio, with a control signal flat, not every such curve was filed as active; inconclusive = small, poorly fitted or top-dose-only effect, or effect the other way, or a change in a side signal; the % refers to the signal ratio; also: potency is read from the fitted curve at half-maximal effect;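 also: reporter cells co-stimulated with 50 nM rosiglitazone agonist during compound treatment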; as to activity, negative = inhibition: % of control where 0% means no effect); details: HEK293 PPARg-UAS-bla, beta-lactamase ratio, antagonist mode; activity, negative = inhibition: at 76.8 µM (top of the series)
Summary of the method: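 We seeded GeneBLAzer HEK293 reporter cells at 3000 per well, allowed 6-6.5 h attachment at 37 C, then co-treated with test compound titrations and 50 nM rosiglitazone overnight (16 h). Inhibition was quantified from 460/530 nm emission ratios.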

[14] = target: Retinoic acid receptor RXR-alpha (Homo sapiens) (UniProt P19793); experiment: qHTS assay for small molecule agonists of retinoid X receptor alpha signaling (AID 588544; calls by dose curve; also: potency is read from the fitted curve at half-maximal effect;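 as to activation: 0% = DMSO basal wells and 100% = reference agonist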); details: HEK293T RXRa-UAS-bla, beta-lactamase reporter, 18 h; activation: at 76.7 µM (top of the series)
[15] = target: Estrogen receptor (Homo sapiens) (UniProt P03372); experiment: qHTS assay for small molecule antagonists of estrogen receptor alpha signaling (AID 588513; active = well fitted curve in the direction sought with a large enough effect in the signal ratio, with a control signal flat, not every such curve was filed as active; inconclusive = small, poorly fitted or top-dose-only effect, or effect the other way, or a change in a side signal; inactive = no such curve, though single readings can be large or run the other way; the % refers to the signal ratio; also: potency is read from the fitted curve at half-maximal effect; as to activity, negative = inhibition: % is scaled to controls: 0 for no effect and ±100 for the full control effect); details: ER-alpha-UAS-bla HEK293, beta-lactamase ratio, antagonist mode; activity, negative = inhibition: at 76.9 µM (top of the series)
Summary of the method: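 ER-alpha-UAS-bla GripTite HEK 293 cells in medium with 2% charcoal/dextran-treated FBS were preincubated 4 h at 37 C, dosed with compound (1:2 titration), stimulated with 0.5nM 17-beta-estradiol for 18 h, then read by CCF4 beta-lactamase fluorescence.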

[16] = qHTS assay for small molecule agonists of the antioxidant response element (ARE) signaling pathway (AID 651741; active = well fitted activation curve with a large enough effect in the signal ratio; inconclusive = small, poorly fitted or top-dose-only effect, or effect the other way, or a change in a side signal; the % refers to the signal ratio; also: potency is read from the fitted curve at half-maximal effect; as to activation: % of control where 0% means no effect); details: HepG2 ARE-bla reporter, beta-lactamase FRET ratio, 16 h
Summary of the method: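 Compounds in DMSO are pinned onto HepG2 ARE-bla cells (2,000/well) that were preincubated 5 h; plates stay 16 h at 37 C, then beta-lactamase activity is detected with LiveBLAzer B/G substrate by fluorescence.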

[17] = Cell Viability - LYMP2-005 (AID 967); details: LYMP2-005 lymphoblastoid cell viability; series mostly up to 92.2 µM; also: potency is read from the fitted curve at half-maximal effect
Summary of the method: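 CellTiter-Glo luminescence (cellular ATP) read-out; LYMP2-005 lymphoblastoid cells, 2500/well, 5 h pre-incubation, then 24 h compound exposure at 37 C in complete medium. Tetraoctylammonium bromide positive control; AC50 by standard Hill fit.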

[18] = target: Estrogen receptor (Homo sapiens) (UniProt P03372); experiment: qHTS assay for small molecule agonists of estrogen receptor alpha signaling (AID 588514; calls by dose curve; also: potency is read from the fitted curve at half-maximal effect; nearly all actives have a fitted effect of over 70% in size); details: ER-alpha-UAS-bla HEK293, beta-lactamase ratio, 18 h; activation: at 76.8 µM (top of the series), percent of full estradiol response, vehicle zero unless noted
Summary of the method: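 ER-alpha-UAS-bla GripTite HEK293 cells, 5000/well in 2% charcoal/dextran-stripped FBS medium, treated with compound titrations 18 h at 37 C. CCF4 beta-lactamase read by fluorescence after 2 h RT; normalised to 20 nM 17-beta-estradiol (100%) and DMSO (0%), Hill fit for EC50 and efficacy.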

[19] = MultiTox-Fluor Cytotoxicity Assay - LYMP1-001 - Live Cells (AID 947); details: LYMP1-001 lymphoblastoid cells, live-cell protease fluorescence viability; series mostly up to 92.2 µM; also: potency is read from the fitted curve at half-maximal effect
[20] = activation: at 92.2 µM (top of the series)
[21] = activation: at 96 µM (top of the series)
Tags tell the direction and shape of the fitted curve or compound fluorescence and quenching.

Chain of UniProt Q03181 (Q03181 whole entry, looked up): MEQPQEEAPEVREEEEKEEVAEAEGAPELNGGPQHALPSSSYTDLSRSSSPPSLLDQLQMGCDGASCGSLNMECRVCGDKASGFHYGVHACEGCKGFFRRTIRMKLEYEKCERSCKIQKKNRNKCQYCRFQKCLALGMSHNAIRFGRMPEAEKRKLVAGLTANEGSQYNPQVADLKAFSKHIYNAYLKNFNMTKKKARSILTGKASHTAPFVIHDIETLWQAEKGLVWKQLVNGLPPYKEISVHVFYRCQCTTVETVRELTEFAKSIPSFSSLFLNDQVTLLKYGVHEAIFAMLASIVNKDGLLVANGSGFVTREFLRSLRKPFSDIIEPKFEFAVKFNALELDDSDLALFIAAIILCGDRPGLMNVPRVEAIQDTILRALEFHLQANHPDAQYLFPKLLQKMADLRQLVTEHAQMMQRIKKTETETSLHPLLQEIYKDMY
Chain of UniProt P03372 (P03372 whole entry, looked up): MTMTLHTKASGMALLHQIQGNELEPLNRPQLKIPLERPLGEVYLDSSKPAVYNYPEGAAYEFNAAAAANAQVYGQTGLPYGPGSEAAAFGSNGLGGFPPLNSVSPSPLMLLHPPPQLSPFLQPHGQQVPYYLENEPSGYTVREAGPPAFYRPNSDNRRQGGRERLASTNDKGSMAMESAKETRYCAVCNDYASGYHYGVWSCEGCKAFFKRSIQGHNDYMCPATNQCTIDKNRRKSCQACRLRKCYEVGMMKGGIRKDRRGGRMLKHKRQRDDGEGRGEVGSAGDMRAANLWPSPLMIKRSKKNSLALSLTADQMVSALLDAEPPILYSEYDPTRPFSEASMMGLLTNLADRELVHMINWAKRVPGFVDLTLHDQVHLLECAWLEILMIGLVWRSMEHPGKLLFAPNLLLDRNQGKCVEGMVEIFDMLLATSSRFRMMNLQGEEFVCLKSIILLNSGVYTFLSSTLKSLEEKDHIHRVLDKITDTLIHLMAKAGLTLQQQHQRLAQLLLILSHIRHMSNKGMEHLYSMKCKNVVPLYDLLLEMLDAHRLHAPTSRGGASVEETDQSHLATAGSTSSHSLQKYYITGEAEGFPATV
Chain of UniProt P10828 (P10828 whole entry, looked up): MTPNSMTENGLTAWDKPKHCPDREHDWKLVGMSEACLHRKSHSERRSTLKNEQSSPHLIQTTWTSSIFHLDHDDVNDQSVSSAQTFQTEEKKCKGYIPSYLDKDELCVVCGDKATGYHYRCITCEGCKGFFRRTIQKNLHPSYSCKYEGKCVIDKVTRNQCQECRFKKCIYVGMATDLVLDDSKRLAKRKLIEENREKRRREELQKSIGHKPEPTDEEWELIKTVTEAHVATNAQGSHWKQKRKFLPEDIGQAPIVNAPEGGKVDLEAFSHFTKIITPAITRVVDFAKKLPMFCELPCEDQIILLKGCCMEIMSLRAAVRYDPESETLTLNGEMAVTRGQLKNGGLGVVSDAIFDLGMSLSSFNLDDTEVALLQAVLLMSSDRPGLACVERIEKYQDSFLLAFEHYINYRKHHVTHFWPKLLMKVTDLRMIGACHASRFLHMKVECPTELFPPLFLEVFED
Chain of UniProt P19793 (P19793 whole entry, looked up): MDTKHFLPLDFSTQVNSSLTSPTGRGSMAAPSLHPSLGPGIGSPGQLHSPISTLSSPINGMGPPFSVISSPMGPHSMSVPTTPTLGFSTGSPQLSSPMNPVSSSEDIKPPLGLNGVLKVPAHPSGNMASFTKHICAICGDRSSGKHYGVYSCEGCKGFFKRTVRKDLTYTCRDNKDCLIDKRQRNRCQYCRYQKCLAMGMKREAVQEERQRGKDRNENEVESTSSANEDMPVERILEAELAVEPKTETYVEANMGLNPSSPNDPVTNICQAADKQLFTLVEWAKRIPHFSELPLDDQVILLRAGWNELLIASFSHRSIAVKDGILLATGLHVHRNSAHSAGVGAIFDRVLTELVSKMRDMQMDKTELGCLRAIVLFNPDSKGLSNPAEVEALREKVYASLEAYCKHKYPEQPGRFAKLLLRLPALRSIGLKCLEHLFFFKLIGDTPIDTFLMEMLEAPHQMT

Clc1ccc(C(c2ccccc2Cl)C(Cl)(Cl)Cl)cc1 (configuration not stated)
inactive: Potency [6] | Potency [11]
inconclusive: Potency [1] 82.1 µM [partial curve] | Potency [2] 50.1 µM [falling, single point] | Potency [3] 0.0501 µM [cytotoxic, full curve, poor fit] | activity change, negative = inhibition [4] -14.2% | activity change, negative = inhibition [5] -30.3% and -43.2% | activation [7] 55.8% | max response [8] -27.5% | Potency [9] 35.5 µM [side channel, falling, partial curve, poor fit] | activity change % (negative = inhibition) [9] 0.5% | Potency [10, 20] 75 µM [rising, single point] | Potency [12] 66.8 µM [cytotoxic, partial curve]

ClC(Cl)c1ccccc1
inconclusive: Potency [13] 56.2 µM [fluorescent, side channel, single point] | activation [10, 20] 2.49%
inactive: Potency [1] > 92 µM | Potency [6] | Potency [14] | activity change % (negative = inhibition) [9] -1.09%

Clc1ccccc1
inactive: Potency [15] | Potency [4]
inconclusive: activation [16, 21] 8.06% | activation [10, 20] -22.9%

C=CC(N)=O
inconclusive: Potency [17] 25.1 µM [cytotoxic, full curve, poor fit] | activity change, negative = inhibition [4] 17.8% | activity change, negative = inhibition [5] 8.26% | Potency [14] 44.7 µM [activator, partial curve, poor fit] | Potency [16, 21] 75 µM [activator, partial curve, poor fit] | activation [16, 21] 2.86% | activation [10, 20] -14.6%
inactive: activation ([16]; at 96 µM (top of the series)) 9.3% | activation ([10]; at 92.2 µM (top of the series)) 8.76%

CCCCCC[N+](=O)[O-]
inactive: Potency [3] | Potency [4]
inconclusive: Potency [5] 708 nM [inhibitor, full curve, poor fit] | activity, negative = inhibition [13] -1% | Potency [16, 21] 75 µM [activator, partial curve, poor fit] | activation [10, 20] 12.9%

ClCC(Cl)Cl
inactive: Potency [1] > 92 µM | Potency [5] | Potency [16, 21]
inconclusive: Potency [3] 6.31 µM [cytotoxic, full curve, poor fit] | activity, negative = inhibition [13] 2.29% | activation [7] -21.4% | Potency [10, 20] 75 µM [inhibitor, single point]

O=[N+]([O-])c1cccc2c([N+](=O)[O-])cccc12
inconclusive: activity, negative = inhibition [13] 2.45% | Potency [11] 106 µM [activator, partial curve, poor fit]
inactive: Potency [1] > 92 µM | Potency [10, 20]

O=C(O)C(Cl)(Cl)Br
inactive: Potency [1] > 92 µM | Potency [2] | Potency [11]
inconclusive: activity change, negative = inhibition [5] -12.2% | activation [10, 20] -15%

Oc1c(Cl)c(Cl)cc(Cl)c1Cl
inactive: Potency [5] | activity change % (negative = inhibition) [9] 23.1%
inconclusive: Potency [1] 117 µM [partial curve] | Potency [2] 50.1 µM [falling, partial curve] | Potency [15] 25.1 µM [falling, full curve, poor fit] | Potency [18] 35.5 µM [side channel, rising, partial curve, poor fit] | Potency [4] 44.7 µM [inhibitor, partial curve, poor fit] | Potency [13] 35.5 µM [side channel, rising, partial curve] | Potency [7] 2.51 µM [side channel, rising, partial curve, poor fit] | Potency [10, 20] 75 µM [activator, single point] | Potency [12] 75 µM [rising, partial curve, poor fit]

CN1CSC(=S)N(C)C1
active: Potency [17] 31.6 µM | Potency [16, 21] 42.2 µM and 27.3 µM
inconclusive: Potency [1] 108 µM [single point] | Potency [2] 39.8 µM [falling, partial curve] | Potency [19] 50.1 µM [cytotoxic, partial curve] | activity, negative = inhibition [15] -33.7% | Potency [5] 10 µM [inhibitor, partial curve, poor fit] and 282 nM [inhibitor, full curve, poor fit] | activity, negative = inhibition [13] -25.5% | max response [8] -54.9% | activation [10, 20] 2.29% | Potency [11] 48.6 µM [activator, partial curve, poor fit] | Potency [12] 75 µM [cytotoxic, partial curve, poor fit]
